# Assay results: PubChem BioAssay AID485344 (National Center for Advancing Translational Sciences (NCATS), 2010)
# About 6,900 (2%) of roughly 340,000 compounds were called active. Cut-off read from the data, not from the text of the source: active = inhibition above about 30%; inactive = below that, where a call was filed. The entries are a selection whose mix differs from that of the whole data set. Entries without a call were filed so in the source.
# Target: D(2) dopamine receptor (Homo sapiens) (UniProt P14416)
# Sequence of UniProt P14416 (P14416 whole entry, looked up): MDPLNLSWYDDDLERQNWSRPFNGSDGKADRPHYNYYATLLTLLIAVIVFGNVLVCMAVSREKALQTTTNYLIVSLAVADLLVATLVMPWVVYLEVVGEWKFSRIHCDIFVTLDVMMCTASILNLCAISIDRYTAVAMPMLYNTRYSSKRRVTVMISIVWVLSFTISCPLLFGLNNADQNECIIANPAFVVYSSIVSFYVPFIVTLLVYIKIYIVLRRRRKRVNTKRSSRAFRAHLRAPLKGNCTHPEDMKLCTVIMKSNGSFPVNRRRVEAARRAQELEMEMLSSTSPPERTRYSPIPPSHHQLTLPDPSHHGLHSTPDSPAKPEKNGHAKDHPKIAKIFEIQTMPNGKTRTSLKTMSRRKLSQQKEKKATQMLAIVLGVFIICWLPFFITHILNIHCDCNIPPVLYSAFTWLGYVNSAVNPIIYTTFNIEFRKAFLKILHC
# Assay: HTS Assay for Allosteric Antagonists of the Human D2 Dopamine Receptor: Primary Screen for Antagonists; note: 0% is about no effect
# Conditions: HEK293 TREx D2 cells, calcium flux, dopamine EC80; at 10 µM; stronger effect = higher value
# Outline: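 Dopamine at EC80 is the agonist stimulus; test compounds precede it by 180 s. Calcium flux read kinetically in a force-coupled, inducible HEK293 T-REx D2 cell line.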
row,Compound,inhibition
1,CCOc1ccc(CC(=O)NCc2ccc3c(c2)CCN3C(C)=O)cc1OCC,-9.92%
2,CC(C)(C)OC(=O)N1CCC(c2c(C(=O)N3CCN(c4ncccn4)CC3)cnn2-c2cccc(F)c2)CC1,-2.31%
3,COc1ccc(NC(=O)CCc2nnc3n(CC(C)C)c(=O)c4ccccc4n23)cc1OC,0.0213%
4,Cc1ccc(C)c(S(=O)(=O)c2nnn3c2nc(N2CCCCC2)c2sccc23)c1,4.3%
5,CCc1cccc(NC(=O)C(CC)n2nc(C)c3sc4ccccc4c3c2=O)c1 (stereo unspecified),18.1%
6,COc1ccc(NC(=O)c2sc3nc4c(cc3c2N)CN(Cc2ccccc2)CC4)cc1OC,4.89%
7,Cc1c(C(=O)NCc2ccccc2Br)oc2ccc3c(c12)C(=O)CC(C)(C)O3,7.3%
8,COC(=O)c1cc(CNC(=O)c2ccc(S(=O)(=O)N(C)c3ccccc3)cc2)ccc1OC,active: 74.1%
9,Cc1noc(-c2ccc(-c3noc(-c4ccc(C(F)(F)F)cc4)n3)cc2)n1,-5.22%
10,CC(C)c1ccc(NC(=O)C(Cc2ccccc2)NS(=O)(=O)c2ccc3c(c2)oc(=O)n3C)cc1 (stereo unspecified),-10.3%
11,COc1ccc(Nc2nc(-c3ccccc3F)nc3ccccc23)cc1OC,11.5%
12,O=C(CSc1nnc(-c2ccccc2)c(-c2ccccc2)n1)NCc1ccco1,active: 40%
13,CC(C)c1ccc(NC(=O)Cn2c(=O)oc3cc(S(=O)(=O)N4CCCC4)ccc32)cc1,-13.1%
14,COc1ccc(-c2nc(S(=O)(=O)c3ccc(C)cc3)c(NCc3ccccc3)o2)cc1,-15.8%
15,Cc1cc(C)c2c(=O)c3c(oc2c1)C(=O)N(Cc1ccco1)C3c1ccccc1F (stereo unspecified),5.05%
16,CCc1c(C)c(C#N)c2nc3ccccc3n2c1Nc1cccc(C(F)(F)F)c1,-3.56%
17,CCOC(=O)c1c(C)[nH]c(C)c1S(=O)(=O)NCC(=O)N1CCN(c2ccccc2F)CC1,8.8%
18,COc1ccc(-c2nc3ccccc3s2)cc1NC(C)=O,-11.5%
19,COc1ccc(CNC(=O)C2CCN(S(=O)(=O)c3ccc4c(ccn4C)c3)CC2)cc1,-8.63%
20,COc1ccc(C(=O)CCC(=O)Nc2cc(C)ccc2C)cc1,19.1%
21,O=C(Nc1ccccc1-c1ccccc1)NC1CC2CCCC(C1)N2Cc1ccc(F)cc1 (stereo unspecified),active: 51.6%

row,Compound,inhibition
1,CCOc1ccccc1NC(=O)c1cc2c(=O)[nH]c3ccccc3c2s1,-9.45%
2,Cc1cccc2sc(N(Cc3cccnc3)C(=O)COc3ccccc3)nc12,-3.08%
3,CC(=O)c1cccc(Nc2nc(-c3ccccc3Cl)nc3ccccc23)c1,13%
4,CC(C)(C)Cn1c(=O)[nH]c(=O)c2cc([N+](=O)[O-])cnc21,active: 35.4%
5,Cc1cccc(OCCn2c(-c3ccc(Cl)cc3)nc3ccccc3c2=O)c1C,26.2%
6,Cc1ccccc1Cn1c2ccccc2c2cnn(CC(=O)NCCc3ccc(Cl)cc3)c(=O)c21,7.9%
7,CCCCNc1nc2ccccc2n1CC(=O)N1CCc2ccccc2C1,active: 52.9%
8,Nc1ncc(S(=O)(=O)NCc2ccc(F)cc2)cn1,2.3%
9,O=C(NC1CC(=O)N(c2ccccc2)C1)c1ccc(S(=O)(=O)N2CCCC2)cc1 (stereo unspecified),7.72%
10,Cc1ccc2[nH]c3c(=O)n(CC(=O)N4CCCC(C)C4)ncc3c2c1 (stereo unspecified),4.06%
11,CC(C)c1cccc(C(C)C)c1NS(=O)(=O)c1cccs1,-22.8%
12,O=C(Cn1ncc2c3ccccc3n(Cc3cccc(Cl)c3)c2c1=O)N1CCCCCC1,5.67%
13,CCOc1ccc(CCNC(=O)Cn2c(C)c3cnn(-c4ccccc4)c(=O)c3c2C)cc1,3.28%
14,O=C(NCc1ccco1)c1ccc2c(c1)N(Cc1cccc(Cl)c1)C(=O)c1ccccc1S2=O (stereo unspecified),0.0231%
15,CC1(C)CC(=O)C2=C(C1)N(c1ccccc1)C(=O)C2(O)C(F)(F)F (stereo unspecified),active: 35.6%
16,CCc1ccc(NC(=O)CC2C(=O)N(c3ccc(Cl)cc3)C(=O)N2C2CCCC2)cc1 (stereo unspecified),22.1%
17,COc1cc(OC)c(NC(=O)CSc2cc(=O)n(C)c3ccc(Cl)cc23)cc1Cl,10.7%
18,CCc1c(CN2CCN(c3cccc(C)c3)C(C)C2)csc1C (stereo unspecified),6.2%
19,O=C(NC1CCCCC1)c1ccc2c(c1)N(Cc1cccc(Cl)c1)C(=O)c1ccccc1S2=O (stereo unspecified),-3.66%
20,Cc1ccc(S(=O)(=O)NC(=O)Nc2cccc([N+](=O)[O-])c2)cc1,active: 68.1%
21,CCN(Cc1ccccc1)C(=O)CCS(=O)(=O)c1ccc2c(c1)CCN2C(C)=O,-4.97%

row,Compound,inhibition
1,CCc1ccc(NC(=O)c2sc3nc(C)cc(C)c3c2NC(=O)c2ccccc2OC)cc1,12.7%
2,CCc1ccc(-c2nc(CSCC(=O)NCc3ccc(C)cc3)c(C)o2)cc1,3.7%
3,COc1ccc(CN2CCN(S(=O)(=O)c3ccc(NC(C)=O)cc3)CC2)c(OC)c1OC,-0.191%
4,CC(=O)c1cc2c(cc1N/C(=N/S(=O)(=O)c1ccc(F)cc1)c1ccccc1)OCO2,-0.344%
5,O=C(NCCCN1CCN(c2ccccc2)CC1)c1cc2c(s1)-c1ccccc1OC2,8.77%
6,Cc1ccccc1Cc1c(C)nc2nc(SCC(=O)NC(C)c3ccccc3)nn2c1C (stereo unspecified),5.64%
7,CCOC(=O)c1c(C)oc2nc(C)nc(NCCCN3CCN(c4cccc(C)c4)C(C)C3)c12 (stereo unspecified),3.88%
8,CCC1CN(C(=O)Nc2cccc3c2CCCC3)c2cc(C)ccc2O1 (stereo unspecified),-22.5%
9,O=C(CNC(=O)c1cccs1)N/N=C/c1c(F)cccc1Cl,active: 30.5%
10,CCCCNC(=O)C1CCN(Cc2nc(-c3ccc(OC)c(OC)c3)oc2C)CC1,-10.9%
11,O=C(NCc1ccc(Cl)cc1)C1CCCN(c2ncnc3onc(-c4ccc(F)cc4)c23)C1 (stereo unspecified),6.22%
12,Cc1cccc(NC(=O)c2c(Br)sc3c2CCCC3)c1,-3.76%
13,COc1ccccc1N1CCN(C(=O)CSc2nc(-c3ccc(C(C)C)cc3)no2)CC1,7.33%
14,COc1ccc(C2CC(=O)c3c([nH]c(C(=O)OCc4ccccc4)c3C)C2)cc1OC (stereo unspecified),5.16%
15,CCCCNC(=O)CSc1nc2n[nH]c(C)c2c(=N)n1-c1ccccc1CC,19.4%
16,CCOc1cc(C2c3c(oc4ccc(F)cc4c3=O)C(=O)N2Cc2ccc(C)cc2)ccc1O (stereo unspecified),3%
17,O=C(COc1ccccc1F)Nc1nnc(S(=O)(=O)N2CCCCCC2)s1,20.5%
18,CCN(CC)c1ccc(NC(=S)NC(=O)Cc2ccccc2)cc1,active: 77.2%
19,COc1ccc(NC(=O)C(Cc2ccccc2)n2cccc2)c(OC)c1 (stereo unspecified),1.68%
